In the experiment the target is T1, c-Met on A549 cells (UniProt P08581).
T1 construct: whole, on cells; Endogenous receptor on A549 cells; also called cell surface c-Met; c-Met receptor
The experiment can be described thus: half-maximal binding, flow cytometry on A549 cells. How it is done:
A549 were detached and counted. 1.5×10e5 cells were seeded per well of a conical 96-well plate. Cells were spun down (1500 rpm, 4° C., 5 min) and incubated for 30 min on ice in 50 μL of a dilution series of the respective bispecific antibody in PBS with 2% FCS (fetal calf serum). Cells were again spun down and washed once with 200 μL PBS containing 2% FCS followed by a second incubation of 30 min with 5 μg/mL of Alexa488-coupled antibody directed against human Fc which was diluted in PBS containing 2% FCS (Jackson Immunoresearch, 109116098). Cells were spun down washed twice with 200 μL PBS containing 2% FCS, resuspended in BD CellFix solution (BD Biosciences) and incubated for at least 10 min on ice. Mean fluorescence intensity (mfi) of the cells was determined by flow cytometry (FACS Canto, BD). Mfi was determined at least in duplicates of two independent stainings Flow cytometry spectra were further processed using the FlowJo software (TreeStar). Half-maximal binding was determined using XLFit 4.0 (IDBS) and the dose response one site model 205.
A cell suspension was incubated with a threefold dilution series (100-0.0003 μg/mL) of the indicated antibodies. Bound antibodies were visualized with a secondary Alexa488-coupled antibody binding to the constant region of human immunoglobulin. Fluorescence intensity of single cells was measured on a FACS Canto (BD Biosciences) flow cytometer.
For orientation: A flow cytometer gives signals particle by particle.

Drawing on patent publication US20120237507A1 (Hoffmann-La Roche, published 2012), this text covers EC50 for one molecule.

T1 sequence (P08581 25-1390 limits assumed): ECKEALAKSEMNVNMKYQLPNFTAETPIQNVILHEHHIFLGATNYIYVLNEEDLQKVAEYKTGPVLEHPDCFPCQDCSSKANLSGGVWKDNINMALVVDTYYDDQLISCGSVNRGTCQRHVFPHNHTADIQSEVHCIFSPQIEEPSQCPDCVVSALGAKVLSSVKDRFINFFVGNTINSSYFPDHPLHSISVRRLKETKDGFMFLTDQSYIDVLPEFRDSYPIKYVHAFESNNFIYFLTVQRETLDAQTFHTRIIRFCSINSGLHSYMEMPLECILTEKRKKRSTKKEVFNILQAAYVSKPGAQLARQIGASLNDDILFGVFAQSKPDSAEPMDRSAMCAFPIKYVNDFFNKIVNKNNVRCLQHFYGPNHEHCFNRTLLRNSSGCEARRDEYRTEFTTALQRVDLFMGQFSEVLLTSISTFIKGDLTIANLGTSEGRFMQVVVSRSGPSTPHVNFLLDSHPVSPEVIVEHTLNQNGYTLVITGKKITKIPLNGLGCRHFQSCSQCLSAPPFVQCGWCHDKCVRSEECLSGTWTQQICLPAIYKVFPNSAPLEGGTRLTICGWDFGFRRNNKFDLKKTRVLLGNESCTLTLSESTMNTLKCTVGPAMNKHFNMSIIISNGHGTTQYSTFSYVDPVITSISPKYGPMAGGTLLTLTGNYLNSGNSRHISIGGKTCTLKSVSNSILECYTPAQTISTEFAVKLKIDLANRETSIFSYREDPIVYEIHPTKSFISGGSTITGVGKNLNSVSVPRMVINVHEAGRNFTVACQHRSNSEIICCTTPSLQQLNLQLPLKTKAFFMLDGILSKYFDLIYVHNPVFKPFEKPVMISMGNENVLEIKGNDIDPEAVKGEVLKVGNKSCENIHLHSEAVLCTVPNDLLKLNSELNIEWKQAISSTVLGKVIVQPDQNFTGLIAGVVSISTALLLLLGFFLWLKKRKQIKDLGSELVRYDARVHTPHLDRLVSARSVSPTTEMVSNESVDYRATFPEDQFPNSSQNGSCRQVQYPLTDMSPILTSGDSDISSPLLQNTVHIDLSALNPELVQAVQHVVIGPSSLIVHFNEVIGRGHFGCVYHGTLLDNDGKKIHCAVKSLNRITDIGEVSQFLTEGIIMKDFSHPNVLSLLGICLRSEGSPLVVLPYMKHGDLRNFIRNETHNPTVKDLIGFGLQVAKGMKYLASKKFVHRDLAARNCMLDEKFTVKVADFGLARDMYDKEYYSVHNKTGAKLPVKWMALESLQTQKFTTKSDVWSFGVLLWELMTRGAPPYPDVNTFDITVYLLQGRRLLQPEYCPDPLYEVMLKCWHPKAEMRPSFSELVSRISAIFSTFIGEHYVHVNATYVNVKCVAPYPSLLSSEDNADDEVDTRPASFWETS

B1: c-Met 5D5 MoAb (“wt”) (other)
chain 1: DIQMTQSPSSLSASVGDRVTITCKSSQSLLYTSSQKNYLAWYQQKPGKAPKLLIYWASTRESGVPSRFSGSGSGTDFTLTISSLQPEDFATYYCQQYYAYPWTFGQGTKVEIKSS[human IgG1 constant region not shown]
chain 2: EVQLVESGGGLVQPGGSLRLSCAASGYTFTSYWLHWVRQAPGKGLEWVGMIDPSNSDTRFNPNFKDRFTISADTSKNTAYLQMNSLRAEDTAVYYCATYRSYVTPLDYWGQGTLVTVSSASVAAPSVFIFPPSDEQLKSGTASVVCLLNNFYPREAKVQWKVDNALQSGNSQESVTEQDSKDSTYSLSSTLTLSKADYEKHKVYACEVTHQGLSSPVTKSFNRGE[human IgG1 Fc not shown]
notes: Monovalent antibody-like heterodimer of two modified heavy chains (CH1-CL exchange), no light chains, no knobs-into-holes; also called c-Met MoAb; MoAb c-Met
For orientation: EC50 means the concentration giving half of the maximal effect. A high value points to a less potent agent. In turn, B1 returned an EC50 of 1.57 nM.
